Measurements as given in PubChem BioAssay AID887 (National Center for Advancing Translational Sciences (NCATS), 2007).
Hit rate of the full screen: of about 74,000 compounds, about 1,100 (1.5%) were called active. Inconclusive results, whose numbers are uncertain, are shown with a selection of clear calls. Calls follow the shape of the dose curve; as a rule, active = well fitted inhibition curve with a large enough effect; inconclusive = small, poorly fitted or top-dose-only effect; inactive = no such curve, though single readings can be large or run the other way. Potencies of inconclusive entries are left out as doubtful fits.

Target: Polyunsaturated fatty acid lipoxygenase ALOX15 (Homo sapiens) (UniProt P16050)
UniProt P16050, sequence (P16050 whole entry, looked up): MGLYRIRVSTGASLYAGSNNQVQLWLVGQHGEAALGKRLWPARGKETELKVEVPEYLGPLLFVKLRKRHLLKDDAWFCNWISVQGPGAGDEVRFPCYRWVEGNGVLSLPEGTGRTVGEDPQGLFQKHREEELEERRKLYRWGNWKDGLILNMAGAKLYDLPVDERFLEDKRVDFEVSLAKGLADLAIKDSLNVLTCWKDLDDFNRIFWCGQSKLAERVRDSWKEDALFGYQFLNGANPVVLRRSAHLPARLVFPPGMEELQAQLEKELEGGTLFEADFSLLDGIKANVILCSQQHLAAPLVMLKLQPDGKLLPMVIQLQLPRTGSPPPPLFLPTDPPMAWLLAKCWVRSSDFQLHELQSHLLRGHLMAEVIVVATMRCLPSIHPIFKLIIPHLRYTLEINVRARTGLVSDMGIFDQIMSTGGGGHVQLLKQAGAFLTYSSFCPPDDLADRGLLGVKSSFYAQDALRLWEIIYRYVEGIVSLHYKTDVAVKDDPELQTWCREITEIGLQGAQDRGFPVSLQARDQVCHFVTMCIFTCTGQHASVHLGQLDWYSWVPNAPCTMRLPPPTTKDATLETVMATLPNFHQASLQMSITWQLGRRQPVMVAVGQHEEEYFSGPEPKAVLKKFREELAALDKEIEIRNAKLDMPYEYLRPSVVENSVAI
Test: qHTS Assay for Inhibitors of 15-hLO (15-human lipoxygenase); also: nearly all actives have a fitted effect of over 55% in size
Settings: purified 15hLO-1, xylenol orange hydroperoxide absorbance; activity change, negative = inhibition: at 57.1 µM (top of the series) unless noted
How it was run: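 Purified human 15hLO-1 (40 nM final) in 25 mM Hepes pH 7.5, 0.01% Triton X-100 was preincubated with compound 15 min at room temperature, then reacted 6 min with 50 uM arachidonic acid; hydroperoxide detected by Fe-XO, 573/405 nm absorbance ratio.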
% is scaled to controls: 0 for no effect and ±100 for the full control effect; potency is read from the fitted curve at half-maximal effect; tags tell the direction and shape of the fitted curve.

| Compound | Potency | activity change, negative = inhibition |
| --- | --- | --- |
| COc1ccc(N2C(N)=C(C#N)C(c3cccnc3)C3=C2CC(C)(C)CC3=O)cc1 (stereo unspecified) | inconclusive [inhibitor, partial curve] | – |
| N#CC1=C(N)Oc2cc(O)ccc2C1C1CCCCC1 (stereo unspecified) | inconclusive [inhibitor, single point] | – |
| O=C(Nc1nc2ccccc2s1)C1CCCN1S(=O)(=O)c1ccc(Cl)cc1 (stereo unspecified) | inconclusive [inhibitor, single point] | – |
| CCCc1[nH]nc2c1C(CCc1ccccc1)C(C#N)=C(N)O2 (stereo unspecified) | inconclusive [inhibitor, single point] | – |
| COc1ccc(C(=O)CC(=O)c2ccc(C(C)(C)C)cc2)cc1 | inconclusive [inhibitor, single point] | – |
| Cc1ccc2c(c1)[C@H]1OCC[C@H]1[C@@H](c1ccncc1)N2 | inactive | – |
| CCOC(=O)N1CC=C2C(C#N)=C(N)C(C#N)(C#N)[C@H](c3ccc(OC(C)C)c(OCC)c3)[C@H]2C1 | inconclusive [inhibitor, single point] | – |
| COc1ccc(NC(=O)c2cc(Cl)ccc2NC(=O)c2ccco2)c(OC)c1 | inactive | – |
| N#CCCn1c(=O)c(-c2cccs2)nc2cnc(N3CCNCC3)nc21 | inactive | – |
| CCOC(=O)Cn1nnnc1CN(Cc1ccc(OC)cc1)Cc1cc2cc(C)ccc2[nH]c1=O | inconclusive [inhibitor, single point] | – |
| c1ccc(CCc2ccccc2-c2nc(-c3ccccn3)no2)cc1 | inconclusive [inhibitor, partial curve] | – |
| COC(=O)c1cc(NC(=O)CSc2nnc(CN3CCOCC3)n2C)ccc1Cl | inconclusive [inhibitor, partial curve] | – |
| CC(C)(C)C(=O)[C@@H]1[C@@H]2C(=O)N(c3ccc4c(c3)OCCO4)C(=O)[C@@H]2C2c3ccccc3C=CN21 (stereo partly specified) | inconclusive [inhibitor, single point] | – |
| COc1ccc(-c2cc(CCCC(=O)NCCc3cc(OC)ccc3OC)no2)cc1 | inactive | – |
| O=c1cc(-c2ccccc2O)oc2cc(O)ccc12 | inconclusive [inhibitor, single point] | – |
| COc1ccc(N2CCC(CNS(=O)(=O)c3cccc(C(F)(F)F)c3)C2)cc1 (stereo unspecified) | active: 0.794 µM | – |
| Nc1ccc(O)cc1 | inconclusive [inhibitor, partial curve] | – |
| Cc1ccc(C)n1-c1ccc(N2CCOCC2)cc1 | active: 2.51 µM | – |
| CC1CCC2C(=O)N3C(CCC(C)C3c3ccc(-c4ccco4)cc3)C(=O)N2C1c1ccc(-c2ccco2)cc1 (stereo unspecified) | active: 2.51 µM | – |
| C=CCOC(=O)C1CC=CCC1C(=O)Oc1ccc(F)cc1F (stereo unspecified) | inactive | – |
| Cn1ccnc1C(O)c1cc(C(C)(C)C)c(O)c(C(C)(C)C)c1 (stereo unspecified) | inconclusive [inhibitor, partial curve] | – |
| Cc1cc(C(=O)NCCC2=CCCCC2)c(C)o1 | inconclusive [inhibitor, single point] | – |
| CC(=O)N(CC(O)CN(C(C)=O)c1c(I)c(C(=O)NC[C@@H](O)CO)c(I)c(C(=O)NC[C@@H](O)CO)c1I)c1c(I)c(C(=O)NC[C@@H](O)CO)c(I)c(C(=O)NC[C@@H](O)CO)c1I | inactive | – |
| CCOc1ccc2nc(NC(=O)CSc3nnc(-c4ccncc4)n3CC3CCCO3)sc2c1 (stereo unspecified) | inactive | – |

| Compound | Potency | activity change, negative = inhibition |
| --- | --- | --- |
| C#CCCCO/N=C1/[C@H]2O[C@@H]2[C@@H](O)[C@H]2[C@H]1CCn1c(=O)n(-c3ccccc3)c(=O)n12 | – | inactive: 11.9% [at 11.4 µM] |
| COc1ccc(C2C=C(c3ccc(Br)s3)Nc3ncnn32)cc1OC (stereo unspecified) | inconclusive [inhibitor, single point] | – |
| Cc1noc(C)c1-c1nccc(NCc2ccccc2)n1 | active: 15.8 µM | – |
| O=S(=O)(Nc1cccc(-c2cn3ccsc3n2)c1)c1ccc(F)cc1 | inconclusive [inhibitor, partial curve] | – |
| CC(=O)c1sc2ccccc2c1OC(=O)c1ccco1 | inactive | – |
| O=C(O)c1cccc(SSc2cccc(C(=O)O)c2)c1 | – | inactive: 2.04% [at 11.4 µM] |
| CCOC(=O)Cc1csc(SCn2nnc3ccccc3c2=O)n1 | inactive | – |
| O=C(O)[C@@H](c1ccccc1)N1Cc2ccccc2C1=O | active: 7.94 µM | – |
| CC(C)C(=O)N1CCc2cc(-c3csc(N)n3)ccc21 | inconclusive [inhibitor, partial curve] | – |
| COc1ccccc1-n1cnc(N)c1C(C)=O | inactive | – |
| COc1ccc2nc(NC(=O)CN3CCN(C)CC3)sc2c1 | inactive | – |
| COc1ccc2cc(C(c3nnnn3Cc3ccc(F)cc3)N3CCCCCC3)c(=O)[nH]c2c1 (stereo unspecified) | inconclusive [inhibitor, partial curve] | – |
| CC(=O)N(C)c1ccc(NS(=O)(=O)Cc2ccccc2)cc1 | inconclusive [inhibitor, partial curve] | – |
| COc1ccc(-c2nc3cccc(C)n3c2NCc2ccco2)cc1OC | inconclusive [inhibitor, single point] | – |
| CCN1CCN(C(c2cc3cc4c(cc3[nH]c2=O)OCO4)c2nnnn2C(C)(C)CC)CC1 (stereo unspecified) | inconclusive [inhibitor, partial curve] | – |
| O=C(O)CN(c1ccccc1F)S(=O)(=O)c1ccccc1 | inconclusive [inhibitor, full curve] | – |
| Cc1ccc(C(=O)Nc2nc3ccccc3c(=O)s2)cc1 | inconclusive [inhibitor, partial curve] | – |
| COc1ccc(OCC(=O)Nc2ccc(NC(=O)c3ccco3)cc2)cc1 | inactive | – |
| O=C(O)C1Cc2c([nH]c3ccccc23)C(c2ccc3c(c2)OCO3)N1 (stereo unspecified) | active: 12.6 µM | – |
| CN(Cc1ccco1)c1nc(-c2ccccc2C(F)(F)F)nc2ccccc12 | active: 15.8 µM | – |
| CC(C)Sc1oc(-c2ccco2)nc1S(=O)(=O)c1ccccc1 | inconclusive [inhibitor, single point] | – |
| C#CCCCO/N=C1/[C@H]2O[C@@H]2[C@@H](O)[C@H]2[C@H]1CCn1c(=O)n([C@@H](CC)c3ccccc3)c(=O)n12 | inconclusive [inhibitor, single point] | – |
| COc1cccc(N(CC(=O)Nc2cccc(C(C)=O)c2)S(C)(=O)=O)c1 | inconclusive [inhibitor, partial curve, poor fit] | – |
| CC[C@H](NC(=O)c1c(C)c(-c2ccccc2)nc2ccccc12)c1ccccc1 | inactive | – |

| Compound | Potency | activity change, negative = inhibition |
| --- | --- | --- |
| C[C@@H](N)C1CCC(C(=O)Nc2ccncc2)CC1 (stereo partly specified) | inconclusive [inhibitor, single point] | – |
| COc1cc(OC)cc(C(=O)N2c3ccc(F)cc3CCC2C)c1 (stereo unspecified) | inactive | – |
| CC(=O)c1cccc(-n2c(CCC(=O)O)ccc2-c2cccs2)c1 | inconclusive [inhibitor, partial curve] | – |
| Cc1ccc2cc3cc(C(=O)N4CCN(C(=O)c5ccco5)CC4)sc3nc2c1 | inconclusive [inhibitor, single point] | – |
| COc1ccc(C(=O)OCCN2CCOCC2)cc1OC | inactive | – |
| COc1cccc(C(=O)N2CCN(C(=O)c3cccc(F)c3)CC2)c1 | inactive | – |
| COc1ccccc1N1C(=O)CC(Nc2ccc(N3CCOCC3)cc2)C1=O (stereo unspecified) | active: 12.6 µM | – |
| CC1=C(/C=C/C(C)=C/C=C/C(C)=C/C=C/C=C(C)/C=C/C=C(C)/C=C/C2=C(C)C(=O)CCC2(C)C)C(C)(C)CCC1=O | inconclusive [inhibitor, single point] | – |
| Cc1occc1-c1nnc(SCC(=O)c2cc3ccccc3oc2=O)o1 | active: 12.6 µM | – |
| Cn1c(C(=O)N2CCN(c3ccccn3)CC2)cc2c(=O)n(C)c3ccccc3c21 | inconclusive [inhibitor, single point] | – |
| CCNc1ncc2nc(-c3ccc(Cl)cc3)c(=O)n(Cc3ccc(F)cc3)c2n1 | inconclusive [inhibitor, partial curve] | – |
| N#Cc1cccc(NC(=O)N2CCCC3(CCN(C(=O)c4ccco4)CC3)C2)c1 | inconclusive [inhibitor, single point] | – |
| COc1cc2nc(N3CCN(C(=O)[C@@H]4COc5ccccc5O4)CC3)nc(N)c2cc1OC | inactive | – |
| CC(C)(C)c1csc(NC(=O)c2cccs2)n1 | inconclusive [inhibitor, partial curve] | – |
| CCOc1ccccc1Oc1cn[nH]c1-c1ccc(OC)cc1O | inconclusive [inhibitor, partial curve] | – |
| O=C(NCc1ccco1)c1cccn2c(=O)c3cc(Br)ccc3nc12 | inconclusive [inhibitor, partial curve] | – |
| CC1(C)CC(=O)C2=C(C1)OC1=C(C(=O)CC(C)(C)C1)C2c1ccc(O)cc1O | active: 3.16 µM | – |
| CCCN1CC=C2C(C#N)=C(N)C(C#N)(C#N)C(c3cc(OC)ccc3OC)C2C1 (stereo unspecified) | inconclusive [inhibitor, partial curve] | – |
| COc1ccc(O)c(C(=O)CC(=O)c2ccccc2)c1 | inactive | – |
| O=C(Nc1ccc(N2CCOCC2)cc1)Nc1cnsn1 | inconclusive [inhibitor, partial curve] | – |
| COc1ccccc1-c1cncnc1NCc1ccccc1 | inconclusive [inhibitor, single point] | – |
| Cc1ccc(C(C(=O)NC2CCCC2)N(Cc2ccc(F)cc2)C(=O)c2csnn2)o1 (stereo unspecified) | inactive | – |
| COc1cccc([C@H](O)Cn2cc(-c3ccc(CON=C(C)C)cc3)nn2)c1 | – | inactive: 15.5% [at 11.4 µM] |
